Test results: ChEMBL document CHEMBL4888484, “Replenishing the malaria drug discovery pipeline: Screening and hit evaluation of the MMV Hit Generation Library 1 (HGL1) against asexual blood stage Plasmodium falciparum ,using a nano luciferase reporter read-out” (2022)
Screen size: about 150,000 compounds; about 540 (0.36%) showed an effect of 50% or more. This is one part of the list.

What follows are compounds tested on Plasmodium falciparum (assay: Primary screen in NF54 nanoGlo assay, in single point, at 2uM, 72h; a lower Z score goes with more inhibition). Conditions: timepoint 72 hour.
Assay type: functional, Erythrocyte
`Cc1ncc(COC(=O)C2Oc3ccccc3C2C)s1` (configuration not stated) was tested, and the “% Inhibition” value was -9% and the Z score was 1.27.
With `Cc1nc(N2CC[C@H](N3CCOCC3)C2)ccc1Br` the “% Inhibition” value was -4% and the Z score was 0.69.
In the case of `COc1ccc(NC(=O)c2sc(N(C(C)=O)C3CCCC3)nc2C)c(OC)c1`, the “% Inhibition” value is reported as -4% and the Z score is reported as 0.44.
`O=C(N[C@H]1C[C@H]2OCC[C@@H]12)c1ccc2ncsc2c1` was tested, and the “% Inhibition” value was -15% and the Z score was 1.49.
`Cc1nc2ncc(-c3ccc(C(=O)N(C)C[C@H](O)CO)cc3)cc2[nH]1` was tested, and the “% Inhibition” value was -8% and the Z score was 1.49.
With `O=C(CCC1CCCC1)N1CCC(F)(C(=O)N2CCOCC2)CC1` the “% Inhibition” value was -4% and the Z score was 0.51.
In the case of `CCCCCS(=O)(=O)N(C)Cc1nnc(C)n1C`, the “% Inhibition” value is reported as -1% and the Z score is reported as 0.06.
`COc1ccc2c(NC(=O)Cc3c(C)noc3C)n[nH]c2c1` was tested, and the “% Inhibition” value was 29% and the Z score was -0.04.
For `Cc1nonc1Cn1cnc(-c2ccccn2)n1`, the “% Inhibition” value was -8% and the Z score was 1.22.
For `Cc1ccc(CC(=O)Nc2cccnc2Oc2ccccc2)cc1`, the “% Inhibition” value was -7% and the Z score was 0.96.
In the case of `COc1ccc2c(=O)c(C(=O)NCCCc3nnc4ccccn34)c[nH]c2c1`, the “% Inhibition” value is reported as -4% and the Z score is reported as 0.46.
With `Cc1cc(C(=O)N(c2cccc(C(F)(F)F)c2)[C@@H](C)C2CC2)n(C)n1` the “% Inhibition” value was -4% and the Z score was 0.45.
For `N=C(N)N=C(N)N(c1ccccc1)c1ccccc1`, the “% Inhibition” value was -16% and the Z score was 2.2.
With `O=c1c2c(ncn1Cc1ccc(Cl)c(Cl)c1)CCOC2` the “% Inhibition” value was -8% and the Z score was 1.53.
With `Cc1cc(N2CCN(C(=O)Cc3ccc(F)cc3)CC2)ncn1` the “% Inhibition” value was -8% and the Z score was 1.57.
For `CCOC(=O)N1CCC(NC(=O)c2nnn(-c3ccccc3)n2)CC1`, the “% Inhibition” value was -18% and the Z score was 2.6.
In the case of `Cc1nc[nH]c1C(=O)NCc1cccnc1Oc1ccc(F)c(F)c1`, the “% Inhibition” value is reported as -7% and the Z score is reported as 1.43.
In the case of `Cc1nscc1C(=O)N1CCNC[C@H]1c1ccncc1`, the “% Inhibition” value is reported as -7% and the Z score is reported as 0.97.
`COc1cccc(C(=O)N[C@H]2CCCN(C3CCN(C)CC3)C2)c1` was tested, and the “% Inhibition” value was 14% and the Z score was -1.26.
In the case of `O=C1c2ccccc2N[C@]2(C(=O)Nc3ccccc32)N1c1ccc(F)cc1`, the “% Inhibition” value is reported as -2% and the Z score is reported as 0.22.
With `Cc1ccc(CN(C)c2ccc3nnc(C4CC4)n3n2)o1` the “% Inhibition” value was -8% and the Z score was 0.96.
`Cc1ccc(-c2nnc(N(Cc3ccccc3)C(C)C)n2C)s1` was tested, and the “% Inhibition” value was -37% and the Z score was 4.39.
In the case of `N#Cc1ccncc1N1CCN(C2CC2)C(=O)C1`, the “% Inhibition” value is reported as -1% and the Z score is reported as 0.19.
With `Cc1nn(-c2ccccn2)c2c1[C@H](c1ccnn1-c1ccccc1)CC(=O)N2` the “% Inhibition” value was -4% and the Z score was 0.48.
With `O=S(=O)(N[C@@H](Cn1cnc2ccccc21)c1ccc(F)cc1)c1ccccc1F` the “% Inhibition” value was -13% and the Z score was 1.2.
With `CCOC(=O)c1c(CN(CC)CC)n(-c2ccccc2)c2ccc(OS(=O)(=O)c3ccc(C)cc3)cc12` the “% Inhibition” value was -22% and the Z score was 2.55.
`C[C@H](NC(=O)c1ccc(Oc2ccccc2)o1)c1ccon1` was tested, and the “% Inhibition” value was -1% and the Z score was 0.09.
In the case of `CC(NC(=O)NC1CCCNC1=O)c1cnn(Cc2ccccc2)c1` (configuration not stated), the “% Inhibition” value is reported as -6% and the Z score is reported as 0.81.
With `N#Cc1ccc(NCCNC(=O)c2ccncc2)nc1` the “% Inhibition” value was 2% and the Z score was -0.2.
With `CCc1nc(NC[C@@H](O)c2ccccc2OC)c2ccsc2n1` the “% Inhibition” value was 0% and the Z score was -0.02.
For `CC(C)[C@H]1CCCN(C(=O)CCc2cccnc2)CC1`, the “% Inhibition” value was -13% and the Z score was 2.05.
With `N#Cc1nc2c(C#N)c(N)n(CCc3ccccc3)c2nc1C#N` the “% Inhibition” value was 88% and the Z score was -11.87.
For `Cc1nccn1CCN1C(=O)COc2ccc(F)cc21`, the “% Inhibition” value was 9% and the Z score was -1.19.
`CCN(CC)c1ccc([C@H]2N(C(=O)C(F)(F)F)CCN2S(=O)(=O)c2ccccc2)cc1` was tested, and the “% Inhibition” value was -5% and the Z score was 0.83.
`N#Cc1ncn(CCCOc2ccc3c(c2)OCO3)n1` was tested, and the “% Inhibition” value was -6% and the Z score was 0.84.
With `CN1CCN(c2nc(N)nc(C3CCCCC3)n2)CC1` the “% Inhibition” value was -1% and the Z score was 0.13.
For `CN(C)c1cc(NC(=O)[C@@H]2C[C@H]3CC[C@@H]2O3)ccn1`, the “% Inhibition” value was -7% and the Z score was 1.31.
For `Cc1ccccc1Nc1nc(N)nc(CN2CCOCC2)n1`, the “% Inhibition” value was -6% and the Z score was 1.09.
`CCN(C(=O)c1cc(C)cc(Br)c1)c1ccncc1` was tested, and the “% Inhibition” value was -8% and the Z score was 0.83.
For `CC(C)CCOc1ccc(OCC(N)=O)cc1`, the “% Inhibition” value was -13% and the Z score was 1.12.
`CC1CN(Cc2cc(=O)n(C)c(=O)n2C)C(C)CO1` (configuration not stated) was tested, and the “% Inhibition” value was -7% and the Z score was 1.47.
In the case of `CN1CCN(C(=O)c2ccc(Cl)o2)c2ccccc2C1`, the “% Inhibition” value is reported as -19% and the Z score is reported as 2.06.
`CCc1nn(C)c2c(=O)n(CCCN3CCCC3=O)cnc12` was tested, and the “% Inhibition” value was -14% and the Z score was 1.49.
For `CC(=O)N1CC[C@H]2COC(=O)N2c2ccccc2C1`, the “% Inhibition” value was 26% and the Z score was -2.99.
In the case of `OCCC[C@@H]1CN(Cc2[nH]c3ccccc3c2Cl)CC[C@@H]1N1CCOCC1`, the “% Inhibition” value is reported as 6% and the Z score is reported as -1.09.
With `Nc1nc2c(c(C(=O)NCc3cccnc3N)n1)CCCC2` the “% Inhibition” value was -4% and the Z score was 0.77.
With `CC(C)c1ccc(C(=O)N2C[C@@H]3NC(=O)c4ncccc4OCCn4cc(nn4)CO[C@H]3C2)c(=O)n1C` the “% Inhibition” value was -4% and the Z score was 0.44.
`COCCNC(=O)CCc1c(C)[nH]c2c3c(F)cccc3nn2c1=O` was tested, and the “% Inhibition” value was -12% and the Z score was 1.39.
`CC1(C)COc2c(S(=O)(=O)Nc3cc(F)cc(F)c3)cnn2C1` was tested, and the “% Inhibition” value was 2% and the Z score was -0.18.
With `O=S(=O)(Cc1ccccc1)NC1CC1c1ccccc1` (configuration not stated) the “% Inhibition” value was -2% and the Z score was 0.17.
In the case of `O=C(c1ccc2noc(-c3ccccc3)c2c1)N1CC[C@H](Oc2cnsn2)C1`, the “% Inhibition” value is reported as -6% and the Z score is reported as 1.13.
For `CNc1ncccc1C(=O)N1CC[C@@]2(CN(C)C(=O)CO2)C1`, the “% Inhibition” value was -12% and the Z score was 2.05.
For `CCCNc1ncc(CN2C[C@H](CCC)[C@@H](N(C)C)C2)cn1`, the “% Inhibition” value was 5% and the Z score was -0.67.
With `Cc1cnn(CCNCc2sccc2C)c1` the “% Inhibition” value was -5% and the Z score was 0.69.
In the case of `CC1(C)CN(C(=O)NC2CC=CC2)CC(C)(C)O1`, the “% Inhibition” value is reported as -1% and the Z score is reported as 0.07.
In the case of `Cc1ccc(S(=O)(=O)N[C@@H](CC(C)C)CN(C)C)o1`, the “% Inhibition” value is reported as -4% and the Z score is reported as 0.57.
